The values that follow come from patent US20210403583A1 (ELIXIRON IMMUNOTHERAPEUTICS HONG KONG, published 2021).

This assay addresses T1, recombinant human IL-10Ra fusion protein (R&D Systems) (human, UniProt Q13651 22-235).
T1 sequence (looked up): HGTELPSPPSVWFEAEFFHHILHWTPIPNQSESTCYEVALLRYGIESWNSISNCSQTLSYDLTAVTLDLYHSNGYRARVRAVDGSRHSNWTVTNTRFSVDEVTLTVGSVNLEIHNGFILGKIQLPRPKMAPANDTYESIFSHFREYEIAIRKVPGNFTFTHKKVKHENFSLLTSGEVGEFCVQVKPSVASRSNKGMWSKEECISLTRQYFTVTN
The experiment in a line: ELISA, coated human IL-10Ra fusion protein. How it is done:
Materials and methods: Recombinant human IL-10Ra fusion protein (R&D Systems) were immobilized on 96 well microtiter plate at a concentration of 1 μg/ml in Coating Solution (SeraCare) overnight at 4° C. The wells were washed with wash solution (0.05% Tween20 in imidazole-buffered saline) and blocked with 1% BSA. Serial dilutions of Ab/IL-10 fusion proteins were added to wells. After incubation at 37° C. for lhr, the wells were washed with wash solution. Peroxidase-conjugated goat anti-human kappa light chain antibody (Bethyl) was applied to each well at 37° C. for 1 hr incubation. After washing, the wells were developed with TMB substrate for 5-10 min at RT and then stopped with 1 N HCl. Thereafter absorbance was measured at 450 nm and 650 nm. The EC50 value was calculated through GraphPad Prism7.
(In general: ELISA stands for enzyme-linked immunosorbent assay.)

A word on the EC50: it is the midpoint of the concentration-response curve.

B1: recombinant (IL10)2-Fc fusion protein (Fc fusion)
chain: SPGQGTQSENSCTHFPGNLPNMLRDLRDAFSRVKTFFQMKDQLDNLLLKESLLEDFKGYLGCQALSEMIQFYLEEVMPQAENQDPDIKAHVNSLGENLKTLRLRLRRCHRFLPCENKSKAVEQVKNAFNKLQEKGIYKAMSEFDIFINYIEAYMTMKIRNGGGGSGGGGSGGGGSPGQGTQSENSCTHFPGNLPNMLRDLRDAFSRVKTFFQMKDQLDNLLLKESLLEDFKGYLGCQALSEMIQFYLEEVMPQAENQDPDIKAHVNSLGENLKTLRLRLRRCHRFLPCENKSKAVEQVKNAFNKLQEKGIYKAMSEFDIFINYIEAYMTMKIRNGGGGSGGGGSGGGG[letters of human IgG1 Fc left out]
notes: Two human IL10 in tandem fused by linkers to the N-terminus of human IgG1 Fc; expressed in ExpiCHO cells
Take B1: the EC50 is 7.24 nM.

B2: recombinant IL10-Fc fusion protein (Fc fusion)
chain: SPGQGTQSENSCTHFPGNLPNMLRDLRDAFSRVKTFFQMKDQLDNLLLKESLLEDFKGYLGCQALSEMIQFYLEEVMPQAENQDPDIKAHVNSLGENLKTLRLRLRRCHRFLPCENKSKAVEQVKNAFNKLQEKGIYKAMSEFDIFINYIEAYMTMKIRNGGGGSGGGGSGGGG[letters of human IgG1 Fc left out]
notes: Human IL10 fused by a linker to the N-terminus of human IgG1 Fc; expressed in ExpiCHO cells
Take B2: the EC50 amounted to 3.85 nM.
